The list shows a part of the results. At the low end of the ranking, values are background and their order means little.
What follows are sequences tested against SIX1-Q177R homeodomain (UniProt Q15475) (assay: universal protein binding microarray). Conditions: Universal all-10-mer PBM (8x60K, AMADID 030236), 300 nM GST-tagged protein, Alexa Fluor 488 anti-GST; buffer, salt, pH and temperature not stated; high values mean tight binding; most listed sequences are background and not binding sites; double strand, one strand shown.

Sequence	binding signal [E-score]
CCAAGTCC	-0.176
CTGTACAC	0.412
CTCTCGCC	-0.239
CAACATAG	-0.0916
CACGTTAC	0.179
ATTCTATA	-0.109
ACCTATCC	0.0324
ACGCCACA	0.134
ACCGAAGG	0.0855
GCCAGCCC	-0.0722
ATCCGAGA	0.00829
AGATCGTG	0.0176
AACAAGTC	-0.346
CACATAGC	-0.0235
GAGAGCCC	-0.186
CCAGACAG	-0.0536
GATGCAAC	-0.0637
CATCTATA	-0.0927
ATTCTTGA	-0.0493
AAGGAAGG	-0.075
ACCAGTGC	0.119
CGATATGA	-0.208
CACTCTGA	0.239
CGTCTTAG	-0.144
ATTTAACG	-0.218

Sequence	binding signal [E-score]
CCGCGAAC	0.118
TAGCGACA	0.172
AACATCCT	-0.263
CCAGAGAG	-0.146
GACGTTAC	-0.0764
GATGTACC	0.12
TGTTCTAA	0.0882
GACCGATC	-0.224
AGCGCACT	-0.0305
GGGACCAA	-0.273
ATGTAATC	-0.0727
TAAGACTA	0.0576
CACGAGAA	0.202
CCACCGGC	0.0601
CCCGGCAC	0.0771
CACTAACA	0.284
TAGTTACA	0.249
GCATTTCA	-0.214
CCGCAAAC	0.0835
CCGTAACC	-0.155
AAGCTGCT	-0.19
TGCTATAA	-0.105
ACTCGTTA	0.0117
AGCCAACT	-0.116
GCCGGAGA	-0.187

Sequence	binding signal [E-score]
GAACAACA	0.114
CAGACGAA	-0.23
GCAAAGAA	-0.0975
CGGGGATC	0.212
CGACGATC	-0.0476
CACACCGA	0.405
CAGGCTCC	-0.167
ACCCTCTG	0.136
AACTTGAC	-0.109
AGTGCTAC	0.0178
ATTCCCCC	-0.0313
ACTCGCCA	0.0406
GCCCGGTA	0.00312
GTAGGATA	0.0821
AAGATGTA	-0.132
TGTGCACA	0.21
CCTTGTAA	0.244
AATTTAAC	-0.0313
CCATCATA	-0.197
CAAAACCG	-0.077
AAATAGTC	-0.186
ATCGAGGG	0.167
GAGATATA	0.0915
TGACCCCA	0.279
CTACAGAG	-0.0145

Sequence	binding signal [E-score]
ATGGGATA	0.0848
CTAGTGAG	-0.0634
CAGGCATC	-0.111
CAAGTTAG	0.12
CCGCGTAG	0.126
AATACTGC	-0.183
ATGAGGCA	-0.037
ACTGCCAG	-0.204
CATGTTAG	-0.236
CCTTACAG	-0.0896
AAGTTTCG	-0.161
CGAGTGTC	0.415
ATACGGGA	0.0651
TAGACCCA	-0.0384
AACCAGGG	0.0694
AGACTAAG	-0.101
AACTTTTG	-0.227
AGGCGCCT	-0.126
AAGTGACG	-0.128
AGACAAGC	-0.163
TCCAATCA	-0.188
AACGCCCC	0.0426
AGTTCGGA	0.0146
AGAATGCC	-0.253
TATCGGCA	0.0996

Sequence	binding signal [E-score]
AAGATAGG	-0.117
GAGGCTAA	-0.152
AGCGTCGA	-0.15
AAGGCGCT	-0.0159
ATTACATG	-0.253
GAGTAGCA	0.0939
GTTCATTA	0.0345
CCTTAGTA	0.114
CGATCCTA	0.0686
TGTGACAA	0.0601
GCAAGCCA	-0.0822
CCGAGATA	0.0859
AGTTGAGA	-0.172
CTACGTAA	-0.167
GAACTTTA	-0.205
CCACAGTC	-0.129
CTTTCCTC	-0.0341
ACAGTACC	-0.0393
ACCTTGCG	0.0281
ACACTCGT	0.351
GTACTATA	0.129
AGACAACA	0.0988
CCAACACC	0.47
AGGCATCA	-0.241
ACGAAACG	-0.0859

Sequence	binding signal [E-score]
ATGACCAA	-0.319
CCCGAACG	0.114
GAACGATC	-0.169
GTCACAAA	0.125
ATCCGGAA	-0.0907
CTAACAAA	-0.111
CCACACAC	0.271
ACGCACCC	0.265
CTATCAGA	-0.0198
AGAAAACA	0.192
GAGAATCC	-0.185
CCGAGGAG	0.135
CTATGGTC	-0.193
ACTACATA	-0.0871
AGACGGCA	-0.0354
ACCGAGAA	-0.0339
CATCTTGG	0.0751
GTTATTAA	-0.15
CCATCGCA	-0.114
GACATCGC	-0.203
GTTTCGTA	-0.116
AATCGTCG	-0.136
ACTATGTA	-0.0297
CGAGTTCC	0.0437
GACCTCAC	0.161

Sequence	binding signal [E-score]
AGAGATCG	-0.0739
CGGACTGC	-0.0679
CCCCCGTA	0.155
CCTGTCCA	-0.165
AGGTAGGG	0.112
CTATCATC	-0.0362
TCGACCGA	-0.197
ATAGTATC	0.105
ATAATTAA	-0.143
CTATTAGC	-0.0241
GCATAGAC	-0.0541
CCATTGCC	-0.0763
CCGCTCCG	0.063
AAGATTTG	-0.228
CTTACGAC	-0.00224
ACTCGGAA	0.021
GTGCAGCA	0.0986
ACACCTCA	0.452
CATGCCCC	-0.116
AAAAAATA	-0.174
AAACCTCA	-0.0721
CATTCTTC	-0.235

Source: publication PMC10668032
